In the supplement of paper PMC12217912:
The list shows a part of the results. Sequences were assembled here from the parent chain. Values near 0.05 are background.

B1: TEV protease; numbered along this chain (parent)
chain: MGESLFKGPRDYNPISSSICHLTNESDGHTTSLYGIGFGPFIITNKHLFRRNNGTLVVQSLHGVFKVKDTTTLQQHLVDGRDMIIIRMPKDFPPFPQKLKFREPQREERICLVTTNFQTKSMSSMVSDTSCTFPSGDGIFWKHWIQTKDGQCGSPLVSTRDGFIVGIHSASNFTNTNNYFTSVPKNFMELLTNQEAQQWVSGWRLNADSVLWGGHKVFMVKPEEPFQPVKEATQL

Variants of: B1
Assay: raw area under fraction-flipped curve 0-4 h after induction (AUC4h, not background-subtracted), DNA-recorder readout of cleavage of the substrate (dimensionless); higher = more cleavage of the substrate by the protease variant
Details: temperature: 34 °C; time window: 0-4 h after rhamnose induction
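Further: Bxb1 expression induced with 0.2% (w/v) L-rhamnose at OD600 near 0.5, cultures sampled hourly, flipped fraction per protease–substrate barcode pair counted by paired-end Illumina sequencing.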

Variant	area with substrate ENLYFCS	area with substrate ENLYFDS	area with substrate ENLYFES	area with substrate ENLYFFS	area with substrate ENLYFHS	area with substrate ENLYFIS	area with substrate ENLYFKS	area with substrate ENLYFLS	area with substrate ENLYFMS	area with substrate ENLYFNS	area with substrate ENLYFPS	area with substrate ENLYFRS	area with substrate ENLYFSS	area with substrate ENLYFTS	area with substrate ENLYFYS	area with substrate ENLYFVS	area with substrate ENLYFGS	area with substrate ENLYFWS
MGESLFKGPRDYNPISSSICHLTNESDGHTTSLYGIGFGPFIITNKHLFRRNNGTLVVQSLHGVFKVKDTTTLQQHLVDGRDMIIIRMPKDFPPFPQKLKFREPQREERICLVTTNFQTKSMSSMVSDTSCTFPSGDGIFWKHWIQTKDGQCGSPLVSTRDGFIVGIHSASNFTNTNNYFTSVPKNFMELLTNQEMQQWVSGWRLNADSVLWGGHKVFMVKPEEPFQPVKEATQL [A196M]	0.0546	0.0591	0.0527	0.0742	0.0529	0.0631	0.059	0.0539	0.0712	0.0748	0.0579	0.0552	0.0464	0.0421	0.0522	–	–	–
MGESLFKGPRDYNPISSSICHLTNESDGHTTSLYGIGFGPFIITNKHLFRRNNGTLVVQSLHGVFKVKDTTTLQQHLVDGRDMIIIRMPKDFPPFPQKLKFREPQREERICLVTTNFQTKSMSSMVSDTSCTFPSGDGIFWKHWIQTKDGQCGSPLVSTRDGFIVGIHSASNFTNTNNYFTSVPKNFMELLTNQEAQQWVSMWRLNADSVLWGGHKVFMVKPEEPFQPVKEATQL [G202M]	0.057	0.0438	0.0585	0.0568	0.0523	0.0543	0.051	0.0621	0.0567	–	0.0541	–	0.042	0.0552	0.0282	0.0528	–	–
MGESLFKGPRDYNPISSSICHLTNESDGHTTSLYGIGFGPFIITNKHLFRRNNGTLVVQSLHGVFKVKDTTTLQQHLVDGRDMIIIRMPKDFPPFPQKLKFREPQREERICLVTTNFQTKSMSSMVSDTSCTFPSGDGIFWKHWIQTKDGQCGSPLVSTRDGFIVGIHSASNFTNTNNYFTSVPKEFMELLTNQEAQQWVSGWRLNADSVLWGGHKVFMVKPEEPFQPVKEATQL [N186E]	0.0618	–	0.0666	0.0715	–	–	0.0513	–	–	–	0.0537	0.0843	–	0.0814	0.0798	–	–	–
MGESLFKGPRDYNPISSSICHLTNESDGHTTSLYGIGFGPFIITNKHLFRRNNGTLVVQSLHGVFKVKDTTTLQQHLVDGRDMIIIRMPKDFPPFPQKLKFREPQREERICLVTTNFQTKSMSSMVSDTSCTFPSGDGIFWKHWIQTKDGQCGSPLVSTRDGFIVGIHSASNFTNTNNYFTSVPKNFMELLTNQEAQQWVSGWRLNVDSVLWGGHKVFMVKPEEPFQPVKEATQL [A207V]	0.0473	–	0.0631	0.0646	0.0555	0.0549	0.0892	–	0.0634	0.0575	0.0712	0.0462	–	0.0973	0.0586	0.0098	0.0746	–
MGESLFKGPRDYNPISSSICHLTNESDGHTTSLYGIGFGPFIITNKHLFRRNNGTLVVQSLHGVFKVKDTTTLQQHLVDGRDMIIIRMPKDFPPFPQKLKFREPQREERICLVTTNFQTKSMSSMVSDTSCTFPSGDGIFWKHWIQTKDGQCGSPLVSTRDGFIVGIHSASNFTNTNNYFTSVPKNFMELLTNQEAQQWVSGWRLNEDSVLWGGHKVFMVKPEEPFQPVKEATQL [A207E]	0.0609	0.0615	–	0.0469	0.131	0.0606	–	–	–	0.0695	0.0621	–	–	0.0211	–	–	–	–
MGESLFKGPRDYNPISSSICHLTNESDGHTTSLYGIGFGPFIITNKHLFRRNNGTLVVQSLHGVFKVKDTTTLQQHLVDGRDMIIIRMPKDFPPFPQKLKFREPQREERICLVTTNFQTKSMSSMVSDTSCTFPSGDGIFWKHWIQTKDGQCGSPLVSTRDGFIVGIHSASNFTNTNNYFTSVPKNFMELLTNQEAQQWVSGWRLNYDSVLWGGHKVFMVKPEEPFQPVKEATQL [A207Y]	0.0515	–	0.0584	–	–	–	–	–	0.0633	–	0.0547	0.0564	–	0.0704	0.0568	–	–	0.0439
MGESLFKGPRDYNPISSSICHLTNESDGHTTSLYGIGFGPFIITNKHLFRRNNGTLVVQSLHGVFKVKDTTTLQQHLVDGRDMIIIRMPKDFPPFPQKLKFREPQREERICLVTTNFQTKSMSSMVSDTSCTFPSGDGIFWKHWIQTKDGQCGSPLVSTRDGFIVGIHSASNFTNTNNYFTSVPKNFMELLTNQEAQQWVSGWWLNADSVLWGGHKVFMVKPEEPFQPVKEATQL [R204W]	0.0619	–	0.0637	0.0665	0.0513	0.0623	0.064	0.0687	0.0697	0.0637	0.0968	0.0524	0.0651	0.0536	0.0532	–	0.0766	0.0529
MGESLFKGPRDYNPISSSICHLTNESDGHTTSLYGIGFGPFIITNKHLFRRNNGTLVVQSLHGVFKVKDTTTLQQHLVDGRDMIIIRMPKDFPPFPQKLKFREPQREERICLVTTNFQTKSMSSMVSDTSCTFPSGDGIFWKHWIQTKDGQCGSPLVSTRDGFIVGIHSASNFTNTNNYFTSVPKNFMEGLTNQEAQQWVSGWRLNADSVLWGGHKVFMVKPEEPFQPVKEATQL [L190G]	0.0527	–	0.0693	0.0663	0.0609	0.0644	–	–	0.0657	–	0.0678	0.0584	–	–	–	–	–	0.0778
MGESLFKGPRDYNPISSSICHLTNESDGHTTSLYGIGFGPFIITNKHLFRRNNGTLVVQSLHGVFKVKDTTTLQQHLVDGRDMIIIRMPKDFPPFPQKLKFREPQREERICLVTTNFQTKSMSSMVSDTSCTFPSGDGIFWKHWIQTKDGQCGSPLVSTRDGFIVGIHSASNFTNTNNYFTSVPKNFMELLTNQEAQQWVSGWRENADSVLWGGHKVFMVKPEEPFQPVKEATQL [L205E]	0.0459	–	0.0656	0.0699	0.0557	0.0532	0.0588	0.0785	–	0.0628	0.0678	0.0609	–	–	0.0645	0.0557	0.035	0.0513
MGESLFKGPRDYNPISSSICHLTNESDGHTTSLYGIGFGPFIITNKHLFRRNNGTLVVQSLHGVFKVKDTTTLQQHLVDGRDMIIIRMPKDFPPFPQKLKFREPQREERICLVTTNFQTKSMSSMVSDTSCTFPSGDGIFWKHWIQTKDGQCGSPLVSTRDGFIVGIHSASNFTNTNNYFTSVPKNFMELLTNQFAQQWVSGWRLNADSVLWGGHKVFMVKPEEPFQPVKEATQL [E195F]	0.0604	0.0575	0.0561	0.0858	0.0642	0.0571	0.0633	0.0706	0.0564	0.0621	0.0463	–	–	0.0782	0.0481	0.0462	–	0.0662
MGESLFKGPRDYNPISSSICHLTNESDGHTTSLYGIGFGPFIITNKHLFRRNNGTLVVQSLHGVFKVKDTTTLQQHLVDGRDMIIIRMPKDFPPFPQKLKFREPQREERICLVTTNFQTKSMSSMVSDTSCTFPSGDGIFWKHWIQTKDGQCGSPLVSTRDGFIVGIHSASNFTNTNNYFTSEPKNFMELLTNQEAQQWVSGWRLNADSVLWGGHKVFMVKPEEPFQPVKEATQL [V183E]	0.067	–	0.0432	0.0596	–	0.057	–	0.0544	0.0412	0.0622	0.041	–	–	0.0334	–	–	–	–
MGESLFKGPRDYNPISSSICHLTNESDGHTTSLYGIGFGPFIITNKHLFRRNNGTLVVQSLHGVFKVKDTTTLQQHLVDGRDMIIIRMPKDFPPFPQKLKFREPQREERICLVTTNFQTKSMSSMVSDTSCTFPSGDGIFWKHWIQTKDGQCGSPLVSTRDGFIVGIHSASNFTNTNNYFTSVPKNFMELLTNQEAQQWVSGWRLNADSVCWGGHKVFMVKPEEPFQPVKEATQL [L211C]	0.0664	–	–	0.0645	0.0801	0.0534	0.074	0.0487	–	0.06	0.0548	0.0627	–	0.0785	–	0.0577	0.07	–
MGESLFKGPRDYNPISSSICHLTNESDGHTTSLYGIGFGPFIITNKHLFRRNNGTLVVQSLHGVFKVKDTTTLQQHLVDGRDMIIIRMPKDFPPFPQKLKFREPQREERICLVTTNFQTKSMSSMVSDTSCTFPSGDGIFWKHWIQTKDGQCGSPLVSTRDGFIVGIHSASNFTNTNNYFASVPKNFMELLTNQEAQQWVSGWRLNADSVLWGGHKVFMVKPEEPFQPVKEATQL [T181A]	0.0684	–	0.0753	0.0734	0.0596	0.0595	–	–	–	–	0.0509	–	0.055	–	–	–	0.0483	0.0447
MGESLFKGPRDYNPISSSICHLTNESDGHTTSLYGIGFGPFIITNKHLFRRNNGTLVVQSLHGVFKVKDTTTLQQHLVDGRDMIIIRMPKDFPPFPQKLKFREPQREERICLVTTNFQTKSMSSMVSDTSCTFPSGDGIFWKHWIQTKDGQCGSPLVSTRDGFIVGIHSASNFTNTNNYFTSVPKNFMELLTNQEAQQWVSGCRLNADSVLWGGHKVFMVKPEEPFQPVKEATQL [W203C]	0.0434	0.061	0.083	0.0713	–	0.0594	0.0551	0.0486	0.0592	–	–	0.0557	–	0.059	–	–	–	0.0543
MGESLFKGPRDYNPISSSICHLTNESDGHTTSLYGIGFGPFIITNKHLFRRNNGTLVVQSLHGVFKVKDTTTLQQHLVDGRDMIIIRMPKDFPPFPQKLKFREPQREERICLVTTNFQTKSMSSMVSDTSCTFPSGDGIFWKHWIQTKDGQCGSPLVSTRDGFIVGIHSASNFTNTNNYFTSVPKNCMELLTNQEAQQWVSGWRLNADSVLWGGHKVFMVKPEEPFQPVKEATQL [F187C]	0.0536	–	0.0593	–	0.0502	0.0501	–	0.076	0.0736	–	–	–	0.102	0.0599	–	–	–	–
MGESLFKGPRDYNPISSSICHLTNESDGHTTSLYGIGFGPFIITNKHLFRRNNGTLVVQSLHGVFKVKDTTTLQQHLVDGRDMIIIRMPKDFPPFPQKLKFREPQREERICLVTTNFQTKSMSSMVSDTSCTFPSGDGIFWKHWIQTKDGQCGSPLVSTRDGFIVGIHSASNFTNTNNYFTSVPKNNMELLTNQEAQQWVSGWRLNADSVLWGGHKVFMVKPEEPFQPVKEATQL [F187N]	0.014	–	0.0453	0.0537	–	0.0571	0.0531	0.0442	0.032	0.0771	0.0493	0.0413	–	0.0858	–	–	–	0.0639
MGESLFKGPRDYNPISSSICHLTNESDGHTTSLYGIGFGPFIITNKHLFRRNNGTLVVQSLHGVFKVKDTTTLQQHLVDGRDMIIIRMPKDFPPFPQKLKFREPQREERICLVTTNFQTKSMSSMVSDTSCTFPSGDGIFWKHWIQTKDGQCGSPLVSTRDGFIVGIHSASNFTNTNNYFTSVPFNFMELLTNQEAQQWVSGWRLNADSVLWGGHKVFMVKPEEPFQPVKEATQL [K185F]	0.0568	0.0609	0.0544	0.078	–	0.0628	–	0.0781	0.0706	0.0699	0.057	0.0408	0.0692	–	–	–	0.0691	0.0625
MGESLFKGPRDYNPISSSICHLTNESDGHTTSLYGIGFGPFIITNKHLFRRNNGTLVVQSLHGVFKVKDTTTLQQHLVDGRDMIIIRMPKDFPPFPQKLKFREPQREERICLVTTNFQTKSMSSMVSDTSCTFPSGDGIFWKHWIQTKDGQCGSPLVSTRDGFIVGIHSASNFTNTNNYFTSVPKNFMELLTNQEAQQWVLGWRLNADSVLWGGHKVFMVKPEEPFQPVKEATQL [S201L]	0.0507	–	–	–	0.0722	0.0429	0.0624	0.097	0.0477	0.0417	–	0.0423	–	0.0595	0.0557	–	0.0552	0.062
MGESLFKGPRDYNPISSSICHLTNESDGHTTSLYGIGFGPFIITNKHLFRRNNGTLVVQSLHGVFKVKDTTTLQQHLVDGRDMIIIRMPKDFPPFPQKLKFREPQREERICLVTTNFQTKSMSSMVSDTSCTFPSGDGIFWKHWIQTKDGQCGSPLVSTRDGFIVGIHSASNFTNTNNYFTSVPKNFMELLTNQEAQQWVIGWRLNADSVLWGGHKVFMVKPEEPFQPVKEATQL [S201I]	0.0511	–	0.0524	0.0731	–	0.0459	0.0625	–	0.0602	0.0566	0.0489	–	0.0589	0.0747	0.0471	0.0562	–	0.0401
